Laboratory results taken from the supplement of paper PMC4604168 (melanoma cell lines).
This is one part of the list. Most values come without repeats; read them as rough.

How the values were obtained:
Test in all cases: cell count relative to DMSO control; melanoma cells; higher = more viable cells
Conditions in all cases: library dose: standard library concentration; 72 h
G361 = test system: G361
IPC-298 = test system: IPC-298
IST-MEL1 = test system: IST-MEL1
LB2518-MEL = test system: LB2518-MEL
LOXIMVI = test system: LOXIMVI
MEL-HO = test system: MEL-HO
MZ2-MEL = test system: MZ2-MEL
MeWo = test system: MeWo
RPMI7951 = test system: RPMI7951
RVH-421 = test system: RVH-421
SkMel28 = test system: SkMel28
SkMel2 = test system: SkMel2
SkMel30 = test system: SkMel30
SkMel5 = test system: SkMel5
UACC257 = test system: UACC257
UACC62 = test system: UACC62
WM115 = test system: WM115
WM1716 = test system: WM1716
WM3526 = test system: WM3526
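Also: cells treated in 1,536-well plates, then fixed and DAPI-stained, with nuclei counted from automated high-throughput microscope images.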

**Q.** With `C[C@]1(O)C[C@@H](c2nc(-c3ccc4ccc(-c5ccccc5)nc4c3)c3c(N)nccn32)C1` + COC(=O)c1sccc1S(=O)(=O)Nc1ccc(Nc2ccccc2)cc1OC [GSK0660] (first compound 2 µM, partner dose 5 µM) as the compound, how does the cell count (G361) read?
**A.** 80.9%

**Q.** What about the cell count (IPC-298) of the same compound?
**A.** 79.7%

**Q.** What about the cell count (IST-MEL1) of the same compound?
**A.** 89.3%

**Q.** What about the cell count (LB2518-MEL) of the same compound?
**A.** 98%

**Q.** What about the cell count (LOXIMVI) of the same compound?
**A.** 89.2%

**Q.** What about the cell count (MEL-HO) of the same compound?
**A.** 84%

**Q.** And the cell count (MZ2-MEL)?
**A.** 83.7%

**Q.** What about the cell count (MeWo) of the same compound?
**A.** 76.3%

**Q.** What about the cell count (RPMI7951) of the same compound?
**A.** 76.7%

**Q.** What about the cell count (RVH-421) of the same compound?
**A.** 91.3%

**Q.** What about the cell count (SkMel28) of the same compound?
**A.** 83.5%

**Q.** And the cell count (SkMel2)?
**A.** 74%

**Q.** And the cell count (SkMel30)?
**A.** 108%

**Q.** And the cell count (SkMel5)?
**A.** 98.3%

**Q.** And the cell count (UACC257)?
**A.** 73.3%

**Q.** What about the cell count (UACC62) of the same compound?
**A.** 86.7%

**Q.** And the cell count (WM115)?
**A.** 105%

**Q.** What about the cell count (WM1716) of the same compound?
**A.** 86.1%

**Q.** What about the cell count (WM3526) of the same compound?
**A.** 72.8%

**Q.** Which cell count (G361) does the source give for `CCN(CC)CCNC(=O)c1c(C)[nH]c(/C=C2\C(=O)Nc3ccc(F)cc32)c1C` [sunitinib] + CCCCCCCCCCCC1=C(O)C(=O)C=C(O)C1=O [Embelin] (first compound 2 µM, partner dose 6 µM) here?
**A.** 69.6%

**Q.** What about the cell count (IPC-298) of the same compound?
**A.** 62.3%

**Q.** And the cell count (IST-MEL1)?
**A.** 64.8%

**Q.** What about the cell count (LB2518-MEL) of the same compound?
**A.** 63.2%

**Q.** What about the cell count (LOXIMVI) of the same compound?
**A.** 106%

**Q.** And the cell count (MEL-HO)?
**A.** 81.1%

**Q.** What about the cell count (MZ2-MEL) of the same compound?
**A.** 85.4%

**Q.** And the cell count (MeWo)?
**A.** 74.4%

**Q.** What about the cell count (RPMI7951) of the same compound?
**A.** 71.7%

**Q.** What about the cell count (RVH-421) of the same compound?
**A.** 81.9%

**Q.** And the cell count (SkMel28)?
**A.** 55.5%

**Q.** And the cell count (SkMel2)?
**A.** 71.8%

**Q.** What about the cell count (SkMel30) of the same compound?
**A.** 73.4%

**Q.** And the cell count (SkMel5)?
**A.** 60.2%

**Q.** What about the cell count (UACC257) of the same compound?
**A.** 87.7%

**Q.** What about the cell count (UACC62) of the same compound?
**A.** 64.7%

**Q.** What about the cell count (WM115) of the same compound?
**A.** 56.7%

**Q.** And the cell count (WM1716)?
**A.** 87.1%

**Q.** What about the cell count (WM3526) of the same compound?
**A.** 53.7%

**Q.** For `CCN(CC)CCNC(=O)c1c(C)[nH]c(/C=C2\C(=O)Nc3ccc(F)cc32)c1C` [sunitinib] + CC(C)CCN1c2nc(Nc3cc(F)c(O)c(F)c3)ncc2N(C)C(=O)C1C [BID1870] (first compound 2 µM, partner dose 1 µM), which cell count (G361) is on record?
**A.** 51.8%

**Q.** And the cell count (IPC-298)?
**A.** 64.7%

**Q.** What about the cell count (IST-MEL1) of the same compound?
**A.** 88.3%

**Q.** And the cell count (LB2518-MEL)?
**A.** 53.4%

**Q.** What about the cell count (LOXIMVI) of the same compound?
**A.** 102%

**Q.** What about the cell count (MEL-HO) of the same compound?
**A.** 61.3%

**Q.** What about the cell count (MZ2-MEL) of the same compound?
**A.** 89.8%

**Q.** What about the cell count (MeWo) of the same compound?
**A.** 47.4%

**Q.** And the cell count (RPMI7951)?
**A.** 47.2%

**Q.** What about the cell count (RVH-421) of the same compound?
**A.** 90.1%

**Q.** What about the cell count (SkMel28) of the same compound?
**A.** 50.3%

**Q.** And the cell count (SkMel2)?
**A.** 48.7%

**Q.** And the cell count (SkMel30)?
**A.** 67.5%

**Q.** What about the cell count (SkMel5) of the same compound?
**A.** 34%

**Q.** What about the cell count (UACC257) of the same compound?
**A.** 70.6%

**Q.** And the cell count (UACC62)?
**A.** 41.6%

**Q.** And the cell count (WM115)?
**A.** 57.6%

**Q.** And the cell count (WM1716)?
**A.** 55.6%

**Q.** And the cell count (WM3526)?
**A.** 47.1%

**Q.** How did the cell count (G361) turn out when `C[C@]1(O)C[C@@H](c2nc(-c3ccc4ccc(-c5ccccc5)nc4c3)c3c(N)nccn32)C1` + O=C1NC(=O)/C(=C/c2ccc(-c3ccc(F)cc3O)o2)S1 [AS252424] (first compound 2 µM, partner dose 5 µM) was run?
**A.** 74.1%

**Q.** And the cell count (IPC-298)?
**A.** 76.4%

**Q.** What about the cell count (IST-MEL1) of the same compound?
**A.** 88.6%

**Q.** And the cell count (LB2518-MEL)?
**A.** 82.3%

**Q.** And the cell count (LOXIMVI)?
**A.** 106%

**Q.** What about the cell count (MEL-HO) of the same compound?
**A.** 77.2%

**Q.** What about the cell count (MZ2-MEL) of the same compound?
**A.** 94%

**Q.** What about the cell count (MeWo) of the same compound?
**A.** 78%

**Q.** What about the cell count (RPMI7951) of the same compound?
**A.** 104%

**Q.** What about the cell count (RVH-421) of the same compound?
**A.** 105%

**Q.** What about the cell count (SkMel28) of the same compound?
**A.** 87.7%

**Q.** And the cell count (SkMel2)?
**A.** 79.2%

**Q.** And the cell count (SkMel30)?
**A.** 96.7%

**Q.** And the cell count (SkMel5)?
**A.** 75.5%

**Q.** What about the cell count (UACC257) of the same compound?
**A.** 110%

**Q.** What about the cell count (UACC62) of the same compound?
**A.** 87.7%

**Q.** What about the cell count (WM115) of the same compound?
**A.** 99.4%

**Q.** What about the cell count (WM1716) of the same compound?
**A.** 86.9%

**Q.** What about the cell count (WM3526) of the same compound?
**A.** 65.9%

**Q.** How did the cell count (G361) turn out when `C[C@]1(O)C[C@@H](c2nc(-c3ccc4ccc(-c5ccccc5)nc4c3)c3c(N)nccn32)C1` + N#Cc1c(O)c2c(-c3ccc(-c4ccccc4O)cc3)csc2[nH]c1=O [A769662] (first compound 2 µM, partner dose 10 µM) was run?
**A.** 103%

**Q.** What about the cell count (IPC-298) of the same compound?
**A.** 111%

**Q.** And the cell count (IST-MEL1)?
**A.** 93.3%

**Q.** What about the cell count (LB2518-MEL) of the same compound?
**A.** 98.5%

**Q.** What about the cell count (LOXIMVI) of the same compound?
**A.** 127%

**Q.** And the cell count (MEL-HO)?
**A.** 99.2%

**Q.** What about the cell count (MZ2-MEL) of the same compound?
**A.** 116%

**Q.** And the cell count (MeWo)?
**A.** 84.2%

**Q.** What about the cell count (RPMI7951) of the same compound?
**A.** 93.7%

**Q.** And the cell count (RVH-421)?
**A.** 94.7%

**Q.** What about the cell count (SkMel28) of the same compound?
**A.** 90.9%

**Q.** And the cell count (SkMel2)?
**A.** 82%

**Q.** And the cell count (SkMel30)?
**A.** 90%

**Q.** What about the cell count (SkMel5) of the same compound?
**A.** 79.5%

**Q.** What about the cell count (UACC257) of the same compound?
**A.** 90.2%

**Q.** What about the cell count (UACC62) of the same compound?
**A.** 85.6%

**Q.** What about the cell count (WM115) of the same compound?
**A.** 127%

**Q.** What about the cell count (WM1716) of the same compound?
**A.** 123%

**Q.** What about the cell count (WM3526) of the same compound?
**A.** 93.6%

**Q.** With `Cn1cnc2c(F)c(Nc3ccc(Br)cc3Cl)c(C(=O)NOCCO)cc21` [selumetinib] + O=C(Nc1ccccc1)c1cc([N+](=O)[O-])ccc1Cl [GW9662] (first compound 0.075 µM, partner dose 10 µM) as the compound, how does the cell count (G361) read?
**A.** 53.9%

**Q.** What about the cell count (IPC-298) of the same compound?
**A.** 54.6%

**Q.** What about the cell count (IST-MEL1) of the same compound?
**A.** 80.1%

**Q.** What about the cell count (LB2518-MEL) of the same compound?
**A.** 43.9%

**Q.** What about the cell count (LOXIMVI) of the same compound?
**A.** 90.5%

**Q.** And the cell count (MEL-HO)?
**A.** 75.3%

**Q.** What about the cell count (MZ2-MEL) of the same compound?
**A.** 42.4%

**Q.** And the cell count (MeWo)?
**A.** 62.6%

**Q.** What about the cell count (RPMI7951) of the same compound?
**A.** 90.5%

**Q.** And the cell count (RVH-421)?
**A.** 83.4%

**Q.** And the cell count (SkMel28)?
**A.** 34.8%

**Q.** And the cell count (SkMel2)?
**A.** 39.4%

**Q.** What about the cell count (SkMel30) of the same compound?
**A.** 61%

**Q.** And the cell count (SkMel5)?
**A.** 68.8%

**Q.** And the cell count (UACC257)?
**A.** 91.3%

**Q.** What about the cell count (UACC62) of the same compound?
**A.** 60.1%

**Q.** What about the cell count (WM115) of the same compound?
**A.** 63.7%

**Q.** What about the cell count (WM1716) of the same compound?
**A.** 78.2%

**Q.** What about the cell count (WM3526) of the same compound?
**A.** 54.3%

**Q.** What does the source list for `Cn1cnc2c(F)c(Nc3ccc(Br)cc3Cl)c(C(=O)NOCCO)cc21` [selumetinib] + CCCCCCCCCCCC1=C(O)C(=O)C=C(O)C1=O [Embelin] (first compound 0.075 µM, partner dose 6 µM)?
**A.** cell count (G361): 89.1%; cell count (IPC-298): 56.6%; cell count (IST-MEL1): 62.4%; cell count (LB2518-MEL): 47%; cell count (LOXIMVI): 113%; cell count (MEL-HO): 63.6%; cell count (MZ2-MEL): 54.8%; cell count (MeWo): 64.8%; cell count (RPMI7951): 95.7%; cell count (RVH-421): 85.2%; cell count (SkMel28): 44.2%; cell count (SkMel2): 53.2%; cell count (SkMel30): 52.2%; cell count (SkMel5): 83.6%; cell count (UACC257): 89.7%; cell count (UACC62): 67.2%; cell count (WM115): 59.8%; cell count (WM1716): 74.3%; cell count (WM3526): 55.5%

**Q.** Which results are given for `C[C@]1(O)C[C@@H](c2nc(-c3ccc4ccc(-c5ccccc5)nc4c3)c3c(N)nccn32)C1` + COc1ccc(COc2ccc(Cc3cnc(N)nc3N)cc2OC)cc1 [GW2580] (first compound 2 µM, partner dose 5 µM)?
**A.** cell count (G361): 65.3%; cell count (IPC-298): 79.6%; cell count (IST-MEL1): 104%; cell count (LB2518-MEL): 85.8%; cell count (LOXIMVI): 91.1%; cell count (MEL-HO): 89.3%; cell count (MZ2-MEL): 87.2%; cell count (MeWo): 70.2%; cell count (RPMI7951): 78.2%; cell count (RVH-421): 289%; cell count (SkMel28): 76.8%; cell count (SkMel2): 75.2%; cell count (SkMel30): 125%; cell count (SkMel5): 69.5%; cell count (UACC257): 85.8%; cell count (UACC62): 99.5%; cell count (WM115): 104%; cell count (WM1716): 98%; cell count (WM3526): 63.2%
